Laboratory results: the supplement of paper PMC10338343
± gives the standard deviation. The list shows a part of the results, in another mix than the full data.

Test system: MIWI (PIWIL1) piRISC loaded with piRNA #1 (30 nt)
Assay: pre-steady-state target cleavage rate (min^-1); MIWI and MILI are mouse PIWI proteins and EfPiwi is from a freshwater sponge; tags in brackets are library labels; higher = faster piRNA-guided slicing of the target
Conditions: guide: piRNA #1 5'p-UGAGGUAGUAGGUUGUAUAGUAUCCAGAGG; auxiliary factor: 500 nM mouse GTSF1
Method in brief: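 In this Cleave-'n-Seq assay, uncleaved targets were sequenced and normalised to depth and to weakly complementary targets. They came from a transcribed, DNA-blocked target RNA library […] mixed with 1 nM active affinity-purified piRISC carrying one synthetic guide, with or without 500 nM GTSF1 partner protein, in HEPES–potassium acetate buffer at 33 °C for 0–8 or 0–960 min. After three trials were pooled and k3 was capped at 0.0001 min^-1, the pre-steady-state cleavage rate was obtained from a burst-and-steady-state fit.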
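Further: 1 nM active piRISC with 0.1 nM target library at 33 °C single turnover.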

Sequence	pre-steady-state target cleavage rate
GGAGUGGAUACUAUACUACCAACUACCUCA	0.0269 ± 0.005
GGAGACGUUACUAUACAACCUUCUACCUCA	0.622 ± 0.036
GGAGACGAUACAAUACAACCUACUACGUCA	0.858 ± 0.073
GGACUGGAUACUAUACAACCUACUACGAGA	0.00844 ± 0.0069
GGAGACCAUAGUAUACAAGCUACUACCUCA	0.399 ± 0.028
GCUCUGGAUAGUAUACAACCUACAACCUCA	0.776 ± 0.05
GGAGACCUAACUAUACAACCUAUCUACCUCA	0.0122 ± 0.0045
GGUCUGGAAACUAUACAACGUACUACCUCA	1.06 ± 0.071
GGUCUGGAUACUAUACGACCUACUACCUCA	1.53 ± 0.098
GGAGACGAUUCUAUACAACCUACUACCUCA	1.77 ± 0.11
GGAGUGGAUUCUAUACUACCUACUACCUCA	1.07 ± 0.087
GGAGUGGAUACUAUACAAGCUACUACCUCA	0.974 ± 0.04
GCUCUGGUUACUAUACAACCAACUACCUCA	0.132 ± 0.011
GGUCUGCAUACUAUACAACCUUCUACCUCA	0.639 ± 0.03
GGUCUCGAUACUUUACAACCUACUACCUCA	1.54 ± 0.093
GGAGACGAAUGUAUACAACCUACUACCUCA	0.474 ± 0.054
GGUCUGCAUACUAUACAACCUACUAGCUCA	0.129 ± 0.029
GGAGACCUAUCUAAACAACCUACUACCUCA	0.144 ± 0.031
GGAGACCUAACUAUACAACCUACUACCUCC [g2:g21:cont:t1C]	0.927 ± 0.066
GGAGAGGAUACUAUACAACCAUCUACCUCA	0.0493 ± 0.01
GGUCUCGGAUACUAUACAACCUACUACCUCA	1.68 ± 0.1
GGAGACCUUACUAAAGAACCUACUACCUCA	0.0599 ± 0.013
GGUCUGGAUCACUAUACAACCUACUACCUCA	1.08 ± 0.1
GGAGACCUAUGUAUACAACCUACUACCACA	0.096 ± 0.015
